# Test results from PubChem BioAssay AID485281 (National Center for Advancing Translational Sciences (NCATS), 2010).
# Hit rate of the full screen: of about 350,000 compounds, about 260 (0.074%) were called active. The inconclusive results got no clear call from the source; some entries with a clear call stand among them for comparison. The call rests on the fitted dose curve; in most records, active means well fitted inhibition curve with a large enough effect; inconclusive means small, poorly fitted or top-dose-only effect; inactive means no such curve, though single readings can be large or run the other way. Where the call is inconclusive, the potency comes from a doubtful curve fit.
# Biological target: Ferritin light chain (Equus caballus) (UniProt P02791)
# Sequence of UniProt P02791 (P02791 whole entry, looked up): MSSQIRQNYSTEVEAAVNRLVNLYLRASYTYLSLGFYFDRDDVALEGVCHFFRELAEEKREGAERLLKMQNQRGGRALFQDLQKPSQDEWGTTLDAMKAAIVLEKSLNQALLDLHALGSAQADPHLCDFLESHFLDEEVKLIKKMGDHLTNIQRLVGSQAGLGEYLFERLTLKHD
# Experiment: qHTS Assay for Identification of Novel General Anesthetics; further: nearly all actives have a fitted effect of over 20% in size
# Settings: apoferritin/1-aminoanthracene competitive binding, fluorescence; activity change, negative = displacement: at 77.5 µM (top of the series)
# Summary of the method: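 10 uM apoferritin + 50% sat. 1-AMA, PBS; cpd 10 min RT; Ex380/Em535 endpoint; normalized to free probe vs complex; 4-param Hill fit; propofol titration as pos. ctrl.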
# On the % scale 0 is the no-effect control and ±100 the full control effect; potency means the concentration at half of the fitted maximal effect; tags describe the fitted curve by direction and shape.
Compound,Potency,"activity change, negative = displacement"
O=C1c2ccccc2C(=O)N1CC(O)COc1ccc(Br)cc1 (stereo unspecified),"inconclusive: 35.5 µM [inhibitor, single point]",–
COc1ccc(NC(=O)CC2CCCCC2)cc1OC,"inconclusive: 17.8 µM [inhibitor, partial curve]",–
O=C(Cn1c(=O)c2cccn2c2ccc(F)cc21)N1CCN(c2ccccc2F)CC1,"inconclusive: 2.51 µM [inhibitor, partial curve]",–
Cc1ccc(S(=O)(=O)Cc2sc3ccccc3[n+]2C)cc1,"inconclusive: 12.6 µM [inhibitor, partial curve]",–
O=C(CNC(=O)c1cccs1)OCC(=O)c1ccccc1,inactive,–
NC(=O)c1cccc2c3c([nH]c12)CCCC3,"inconclusive: 35.5 µM [inhibitor, partial curve]",–
Cc1ccc(/C=N/NC(=O)CNC(=O)c2cccs2)cc1,"inconclusive: 10 µM [inhibitor, partial curve]",–
CC(C)c1cccc(OCCN2CCCC2)c1,inactive,–
Cc1ccc(CNC(=O)c2c(Nc3ccccc3C)sc(C(=O)c3ccc(F)cc3)c2N)cc1,inactive,–
COc1ccc(CC(=O)NCC(c2cccs2)S(=O)(=O)c2ccc(F)cc2)cc1 (stereo unspecified),"inconclusive: 44.7 µM [inhibitor, partial curve]",–
O=[N+]([O-])c1ccc(-c2cnc(SCc3ccccc3Cl)[nH]2)cc1,"inconclusive: 31.6 µM [inhibitor, partial curve]",–
CC(C)c1cc(-c2nc(-c3ccc(Cl)cc3)no2)n[nH]1,"inconclusive: 8.91 µM [inhibitor, partial curve]",–
COC(=O)C/C=C\[C@@H](C)[C@@H](/C=N\OC[C@@H](O)[C@H]1O[C@H]2OC(C)(C)O[C@H]2[C@@H]1O)NS(=O)(=O)c1ccc(C)cc1,–,inactive: -1.7% [at 15.3 µM]
O=C(Cn1nnc(-c2ccccc2F)n1)OCC(=O)c1ccccc1,"inconclusive: 28.2 µM [inhibitor, partial curve]",–
CC(=O)Nc1ccc(-c2cc3ccccc3o2)cc1,inactive,–
C=CCOc1cccc(/C=C2\C(=O)N(Cc3ccc(C)cc3)C(C)=C2C(=O)OC)c1,"inconclusive: 17.8 µM [inhibitor, partial curve]",–
CC(C)CCC(C)NC(=O)CN1C(=O)NC(C)(c2ccc3ccccc3c2)C1=O (stereo unspecified),"inconclusive: 44.7 µM [inhibitor, single point]",–
O=S(=O)(NCCCN1CCN(c2ccccc2F)CC1)c1cccc2cccnc12,"inconclusive: 31.6 µM [inhibitor, partial curve]",–
CCOc1ccc(OCc2ccc(C(=O)N3CCCCC3)o2)cc1,"inconclusive: 31.6 µM [inhibitor, partial curve]",–
Cc1ccc(C(=O)C2=C(O)C(=O)N(Cc3ccco3)C2c2cccc(Br)c2)o1 (stereo unspecified),"inconclusive: 25.1 µM [inhibitor, partial curve]",–
CCc1ccccc1NC(=O)Nc1cccn(Cc2ccc(F)cc2)c1=O,"inconclusive: 5.62 µM [inhibitor, full curve]",–
COC(=O)[C@@]1(C)CCC[C@@]2(C)c3ccc(O)c(C(C)C)c3CCC21 (stereo partly specified),"inconclusive: 4.47 µM [inhibitor, full curve]",–

Compound,Potency,"activity change, negative = displacement"
CC(C)C12CN3CC(C(C)C)(CN(C1)C3(C)C)C2=O,"inconclusive: 100 µM [inhibitor, partial curve, poor fit]",–
CCC(C)OC(=O)C1=C(C)O[C@]23OC(N)=C(C#N)[C@]12C(=O)c1ccccc13 (stereo partly specified),"inconclusive: 39.8 µM [inhibitor, partial curve]",–
Cc1cccc(-n2c(SCC(=O)Nc3ccc(C)c(C)c3)nc3n[nH]c(C)c3c2=N)c1,"inconclusive: 50.1 µM [inhibitor, single point]",–
COCCCNCCOc1ccc(C(C)(C)c2ccccc2)cc1,"inconclusive: 50.1 µM [inhibitor, single point]",–
C[C@H](NS(=O)(=O)c1ccccc1)C(=O)OCC(=O)NC(=O)Nc1ccc2c(c1)OCCO2,"inconclusive: 56.2 µM [inhibitor, single point]",–
c1ccc(-c2cccc(-c3ccccn3)n2)nc1,inactive,–
COc1cc2oc3ccccc3c(=O)c2cc1OC,inactive,–
CC(C)c1ccc(NC(=O)c2ccc(=O)n(Cc3ccccc3)c2)cc1,"inconclusive: 31.6 µM [inhibitor, partial curve]",–
CCOc1ccccc1N(C)C(=O)c1nn(-c2ccc(OC)cc2OC)c(=O)c2ccccc12,"inconclusive: 28.2 µM [inhibitor, partial curve]",–
CCc1ccc(C(=O)OCC(=O)Nc2cccc(S(=O)(=O)NC3=NCCCCC3)c2)cc1,"inconclusive: 50.1 µM [inhibitor, single point]",–
O=C(CO/N=C/c1ccc(OC(F)F)cc1)NCc1ccc(F)cc1,"inconclusive: 28.2 µM [inhibitor, partial curve]",–
CN(C)C(=O)c1ccccc1Sc1cc(Cl)ccc1Cl,"inconclusive: 28.2 µM [inhibitor, partial curve]",–
Cc1ccc(OCC(=O)Nc2ccc(CN3CCOCC3)cc2)cc1C,"inconclusive: 15.8 µM [inhibitor, partial curve]",–
Cc1ccccc1Cn1nnc(C(=O)Nc2cccc(C)c2C)c1N,"inconclusive: 20 µM [inhibitor, partial curve]",–
C=CCn1c2ccccc2c2nnc(SCN3C(=O)c4ccccc4C3=O)nc21,"inconclusive: 5.01 µM [inhibitor, partial curve]",–
O=C(CS(=O)(=O)Cc1ccccc1)N1CCc2ccccc21,"inconclusive: 35.5 µM [inhibitor, partial curve, poor fit]",–
O=C(c1noc2c1CCc1ccccc1-2)N1CCCc2ccccc21,"inconclusive: 31.6 µM [inhibitor, partial curve]",–
O=C(c1ccc(Cl)cc1)c1ccc(Oc2cc(NN3CCCCC3)c([N+](=O)[O-])cc2[N+](=O)[O-])cc1,"inconclusive: 39.8 µM [inhibitor, single point]",–
CN(C)S(=O)(=O)Nc1cccc(NC(=O)CC23CC4CC(CC(C4)C2)C3)c1,"inconclusive: 31.6 µM [inhibitor, single point]",–
O=C(Nc1ccc(S(=O)(=O)NCCc2ccccc2)cc1)c1ccncc1,inactive,–
COc1ccc(/C=C/C(=O)C2CC2)cc1Cn1nc(C)c([N+](=O)[O-])c1C,"inconclusive: 28.2 µM [inhibitor, partial curve]",–
Nc1cc(C(=O)OCC(=O)NC(c2ccccc2)c2ccccc2)ccc1Cl,inactive,–

Compound,Potency,"activity change, negative = displacement"
CCn1c(CNc2ccc(F)cc2)nnc1SCC(=O)OC1CCCCC1,"inconclusive: 17.8 µM [inhibitor, partial curve]",–
Cc1nnc(NC(=O)CC23CC4CC(CC(C4)C2)C3)s1,"inconclusive: 8.91 µM [inhibitor, partial curve]",–
CCCCCCCC1(C)NC(=O)N(c2ccccc2)N1 (stereo unspecified),"inconclusive: 28.2 µM [inhibitor, single point]",–
COc1ccc(OC)c(CNC(=O)NCc2noc3ccc(C)cc23)c1,"inconclusive: 28.2 µM [inhibitor, partial curve]",–
COC(=O)c1sccc1NC(=O)/C=C\c1ccc(Cl)cc1Cl,"inconclusive: 56.2 µM [inhibitor, single point]",–
Cc1cc(Nc2cccc(Cl)c2)nc2ccc(NC(=O)COc3ccc(Cl)cc3)cc12,inactive,–
COc1ccc(NS(=O)(=O)c2cccc(NC(=O)CCC(=O)c3ccc(Cl)cc3)c2)cc1,inactive,–
Cc1ccc(NC(=O)N2CCCCCC2)c(C)c1,"inconclusive: 10 µM [inhibitor, partial curve]",–
COc1ccc(OC(=O)Nc2ccccc2)cc1,inactive,–
COc1ccccc1C(=O)COC(=O)/C=C/c1ccccc1,"inconclusive: 31.6 µM [inhibitor, partial curve]",–
COC(=O)c1ccc(Cc2ccccc2)o1,"inconclusive: 35.5 µM [inhibitor, single point]",–
O=[N+]([O-])c1ccc(N/N=C2\CC3CC=CC23)c([N+](=O)[O-])c1 (stereo unspecified),"inconclusive: 15.8 µM [inhibitor, partial curve]",–
Cc1oc2ccc(O)c(CN3CCCCCC3)c2c1C(=O)Nc1cccc(C(F)(F)F)c1,"inconclusive: 5.62 µM [inhibitor, partial curve]",–
O=C1c2ccccc2C(=O)c2c1cccc2N1CCN(CCO)CC1,"inconclusive: 50.1 µM [inhibitor, single point]",–
O=C(CSc1ccc(F)cc1)Nc1ccccc1Br,"inconclusive: 31.6 µM [inhibitor, partial curve]",–
CC(C)(C)c1ccc(/C=C/C(=O)Nc2ccc3c(c2)OCCO3)cc1,"inconclusive: 10 µM [inhibitor, partial curve]",–
N#CC1(Cc2ccccc2)c2ccccc2C=CN1C(=O)c1ccccc1 (stereo unspecified),inactive,–
O=C(CC1Sc2ccccc2NC1=O)Nc1cccc(C(F)(F)F)c1 (stereo unspecified),inactive,–
COc1ccc(OC)c(NC(=O)C(C)n2c(=O)c(-c3ccccc3NC(C)=O)nc3ccccc32)c1 (stereo unspecified),inactive,–
CCN(CC)c1ccc(/C=c2/sc3nnc(-c4ccccc4C)n3c2=O)cc1,inactive,–
CCOc1cc(/C=C2\N=C(SC(C)C(N)=O)N(c3ccc(OC(F)F)cc3)C2=O)ccc1O (stereo unspecified),"inconclusive: 28.2 µM [inhibitor, partial curve]",–
O=C(COC(=O)COc1ccc(Cl)cc1)Nc1ccc(F)c([N+](=O)[O-])c1,"inconclusive: 50.1 µM [inhibitor, single point]",–
